# PubChem BioAssay AID686970 (National Center for Advancing Translational Sciences (NCATS), 2013)
# Among all 360,000 compounds or so, about 6,000 (1.7%) were called active. Inconclusive means that the source gave no clear call. Such entries were picked first, then a sample of the others. Calls come from the whole dose curve; as a rule, active = well fitted cell-killing curve with a large enough effect; inconclusive = small, poorly fitted or top-dose-only effect, or effect the other way; inactive = flat fitted curve, though single readings scatter. Potencies of inconclusive entries are left out as doubtful fits.
# Assay: qHTS for induction of synthetic lethality in tumor cells producing 2HG: qHTS for the HT-1080-NT fibrosarcoma cell line;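 note: NT is the 2HG producing partner of a matched IDH1 knockdown line; nearly all actives have a fitted effect of over 55% in size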;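 for activity, negative = less viability: 0% = DMSO-treated cells and -100% = media-only wells without cells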
# Conditions: HT-1080-NT fibrosarcoma viability, CellTiter-Glo ATP luminescence, 48 h; activity, negative = less viability: at 46.1 µM (top of the series) unless noted
# In short: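 Compounds were tested in concentration-response format on HT-1080-NT cells for 48 hours at 37 degrees C. Cell viability came from CellTiter-Glo luminescence; curves were classified by r2, response magnitude and activity.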
# Potency is the fitted concentration of half-maximal effect; tags give direction and shape of the fitted curve.
SMILES,Potency,"activity, negative = less viability"
CCCS(=O)(=O)NC(=O)C1(C)CCN(C(=O)c2ccc3c(c2)OCO3)C1 (stereo not drawn),"inconclusive [rising, single point]",–
O=C(/C(=C/O)N=Nc1ccccc1)c1cccs1,active: 16.4 µM,–
Cc1ccc(-c2nc3ccccc3s2)cc1NC(=O)c1ccc2c(c1)OCO2,"inconclusive [rising, partial curve]",–
Cc1cc2cc(C(c3nnnn3CC3CCCO3)N3CCCc4ccccc43)c(=O)[nH]c2cc1C (stereo not drawn),"inconclusive [cytotoxic, partial curve]",–
O=C(CN1C(=O)NC2(CCCCCCC2)C1=O)Nc1ccc(Br)cc1Br,"inconclusive [cytotoxic, single point]",–
CN1CCN(c2ccc(C(F)(F)F)cc2NC(=O)Nc2ccccc2)CC1,"inconclusive [cytotoxic, single point]",–
COc1ccc(C(O)c2nc(-c3ccc(F)c(Cl)c3)cs2)cc1 (stereo not drawn),"inconclusive [cytotoxic, single point]",–
CN1CCCC(CN2c3ccccc3Sc3ccccc32)C1 (stereo not drawn),"inconclusive [cytotoxic, single point]",–
COc1ccc2occ(C(=O)c3ccccc3)c2c1,inactive,–
CCN=c1sc(C(=O)NCCc2ccccc2)cc(=O)n1CC,"inconclusive [cytotoxic, single point]",–
CCOc1ccccc1NC(=O)Nc1ccc(Cl)cc1,inactive,–
O=S1(=O)c2c(F)cccc2OC(COc2ccccc2)CN1CCc1ccc(F)cc1 (stereo not drawn),inactive,–
COC(=O)CSC1=C(C#N)C(c2ccccc2)CC(=O)N1 (stereo not drawn),"inconclusive [cytotoxic, single point]",–
COc1ccc(CN(C)CC2CCCN(CCc3ccc(F)cc3)C2)cc1OC (stereo not drawn),–,inconclusive: -34.9% [cytotoxic]
COc1ccc(Cc2nnc(NC(C)=O)s2)cc1,inactive,–
Cc1cc(C)n(-c2ncnc3sc4c(c23)CCCC4)n1,"inconclusive [rising, single point]",–
Cc1ccc(-n2c(CCc3ccccc3)nnc2SCC(=O)NCc2ccccc2)cc1C,inactive,–
Cc1ccc2cc3c(NS(=O)(=O)c4cccc5nonc45)nn(CC(C)C)c3nc2c1,"inconclusive [cytotoxic, single point]",–
CN1c2ccccc2Sc2cc(N)ccc21,"inconclusive [cytotoxic, single point]",–
COCCNC(=O)C1(C)CCN(C(=O)c2ccc3ccccc3n2)C1 (stereo not drawn),inactive,–
COc1ccc(S(=O)(=O)Nc2cccc(-c3ccc4nncn4n3)c2)cc1,active: 16.4 µM,–
COc1ccc2nc(/N=C/c3c(C)[nH]n(-c4ccc(C)cc4)c3=O)sc2c1,"inconclusive [cytotoxic, single point]",–
O=C(NC1CCCCC1)c1ccccc1-c1ccccc1,–,inconclusive: 30.8%
CC(=O)Nc1cccc(-c2ccnc3c2CC(C)(C(=O)NCc2ccccc2)O3)c1 (stereo not drawn),"inconclusive [cytotoxic, full curve]",–

SMILES,Potency,"activity, negative = less viability"
Cc1ccc(S(=O)(=O)c2c(C)nn(C(C)(C)C)c2OC(=O)c2ccco2)cc1,active: 23.1 µM,–
CCCCOC(=O)/C=C\C(=O)NC(N)=O,"inconclusive [cytotoxic, single point]",–
Cc1cc(C)c(C(O)c2ncc(-c3ccccc3C)[nH]2)c(C)c1 (stereo not drawn),"inconclusive [cytotoxic, single point]",–
O=C(Nc1cccc(CNCCc2c[nH]c3ccccc23)c1)c1ccccc1Cl,"inconclusive [cytotoxic, single point]",–
Clc1ccc(CN2C3=NCCCN3c3ccccc32)cc1Cl,"inconclusive [cytotoxic, partial curve]",–
CCn1ccnc1CN(C)Cc1cn(-c2ccc(C)cc2)nc1-c1cccc(C)c1,"inconclusive [cytotoxic, single point]",–
C=CCn1c(SCC(=O)N(C)C)nc2cc(C(=O)O)ccc2c1=O,–,inconclusive: 46%
OCCc1ccc(NCCc2cccs2)cc1,"inconclusive [rising, partial curve]",–
CCCCNC(=O)C1(C)CCN1C(=O)c1cccnc1Oc1ccccc1 (stereo not drawn),inactive,–
CSCC[C@H](NC(=O)N1CCn2c1nc1ccccc12)C(=O)N1CCCCC1,inactive,–
OC(c1ccc(F)c(F)c1)c1ncc(-c2ccc(Cl)cc2)[nH]1 (stereo not drawn),"inconclusive [cytotoxic, partial curve, poor fit]",–
O=S(=O)(c1ccc(Br)c2ccccc12)N1CCCC1,inactive,–
CCSc1cc(C)nc2c(-c3ccccc3)c(C)nn12,inactive,–
CCn1c(=N)n(CC(=O)c2ccc(Br)s2)c2ccccc21,"inconclusive [cytotoxic, single point]",–
Cc1ccc(-c2csc(Nc3ccc(C(=O)O)cc3)[n+]2Cc2ccccc2)cc1,inactive,–
CC(=O)c1ccc(Nc2nc(C(N)COCc3ccccc3)cs2)cc1 (stereo not drawn),inactive,–
NC(=O)NC(=O)CSc1nc(C2CCCCC2)n(-c2ccccc2)n1,inactive,–
O=C(N/N=C1\CCc2ccccc21)c1ccccc1O,"inconclusive [cytotoxic, single point]",–
COc1ccc(C(=O)N2CCCC2(C)C(=O)NCC(C)C)cc1C(F)(F)F (stereo not drawn),"inconclusive [rising, single point]",–
CC1(C)C2CC=C(/C=N/NC(=S)NCCc3ccccc3)C1C2 (stereo not drawn),"inconclusive [cytotoxic, single point]",–
COCCNc1nc(NCCCN(C)C)c2sccc2n1,"inconclusive [rising, single point]",–
O=C(CSC(=S)N1CCCC1)c1cc(Br)cc(Br)c1O,active: 16.4 µM,–
Cc1ccc(CNC(=O)C2CC(c3cc(C(F)(F)F)cc(C(F)(F)F)c3)=NO2)o1 (stereo not drawn),"inconclusive [cytotoxic, partial curve]",–
COc1ccc(-c2cc(NC=O)c3ncc(-c4ccc(OC)c(OC)c4)n3c2)cc1OC,"inconclusive [cytotoxic, partial curve]",–
